The target in this experiment is T1, CD79b on target cells (JEKO, OCY-LY3, BJAB, WSU-DLCL2) (human, UniProt P40259 29-229).
T1 sequence: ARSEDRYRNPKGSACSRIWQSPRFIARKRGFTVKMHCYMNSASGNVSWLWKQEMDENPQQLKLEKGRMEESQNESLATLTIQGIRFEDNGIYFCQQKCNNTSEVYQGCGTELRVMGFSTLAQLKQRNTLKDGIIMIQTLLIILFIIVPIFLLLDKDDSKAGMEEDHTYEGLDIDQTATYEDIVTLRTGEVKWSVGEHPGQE
Nature of the experiment: cell-based or functional assay.

B1: ATB 221 (Fc fusion)
chain: EVQLVESGGGLVQPGGSLRLSCAASGYTFSSYWIEWVRQAPGKGLEWIGEILPGGGDTNYNEIFKGRATFSADTSKNTAYLQMNSLRAEDTAVYYCTRRVPIRLDYWGQGTLVTVSSGGGGSGGGGSGGGGSDIQLTQSPSSLSASVGDRVTITCKASQSVDYEGDSFLNWYQQKPGKAPKLLIYAASNLESGVPSRFSGSGSGTDFTLTISSLQPEDFATYYCQQSNEDPLTFGQGTKVEIKAS[human IgG1 Fc and a few adjoining residues not written out]RHRQPRGWEQLAVTWTCLNDQKNPKTNKYETKRLLYNQNKAESNSHHAPLSDGKTGSSYPHWFTNGYDGDGKLPKGRTPIKFGKSDCDRPPKHSKDGNGKTDHYLLEFPTFPDGHDYKFDSKKPKENPGPARVIYTYPNKVFCGIIAHTKENQGELKLCSH
Take B1: the “cell viability IC50 (Cell Titer Glo, 72 h), JEKO cells” value is 0.141 nM.

B2: ATB 229 (Fc fusion)
chain: EVQLVESGGGLVQPGGSLRLSCAASGYTFSSYWIEWVRQAPGKGLEWIGEILPGGGDTNYNEIFKGRATFSADTSKNTAYLQMNSLRAEDTAVYYCTRRVPIRLDYWGQGTLVTVSSGGGGSGGGGSGGGGSDIQLTQSPSSLSASVGDRVTITCKASQSVDYEGDSFLNWYQQKPGKAPKLLIYAASNLESGVPSRFSGSGSGTDFTLTISSLQPEDFATYYCQQSNEDPLTFGQGTKVEIKAS[human IgG1 Fc and a few adjoining residues not written out]GNRVRRSVGAVTWTCLNDQKNPKTNKYETKRLLYNQNKAESNSHHAPLSDGKTGSSYPHWFTNGYDGDGKLPKGRTPIKFGKSDCDRPPKHSKDGNGKTDHYLLEFPTFPDGHDYKFDSKKPKENPGPARVIYTYPNKVFCGIIAHTKENQGELKLCSH
With B2, the “cell viability IC50 (Cell Titer Glo, 72 h), JEKO cells” value came out at 0.0637 nM.

These data come from patent publication US20230310557A1 (ATB THERAPEUTICS, published 2023).
